Test results: PubChem BioAssay AID624417 (National Center for Advancing Translational Sciences (NCATS), 2012)
Values joined by “and” are separate entries in the source; they are usually repeats but may differ in a detail not shown here. Equal values may be shown once. In all, about 410,000 compounds went through this assay and about 6,400 (1.6%) were called active. This list was built around the results that the source calls inconclusive (neither active nor inactive); the mix of calls is not that of the screen. Calls come from the whole dose curve; as a rule, active = well fitted inhibition curve with a large enough effect; inconclusive = small, poorly fitted or top-dose-only effect; inactive = no such curve, though single readings can be large or run the other way. Potencies of inconclusive entries are doubtful fits and often do not repeat.

Biological target: Glucagon-like peptide 1 receptor (Homo sapiens) (UniProt P43220)
Chain of UniProt P43220 (P43220 whole entry, looked up): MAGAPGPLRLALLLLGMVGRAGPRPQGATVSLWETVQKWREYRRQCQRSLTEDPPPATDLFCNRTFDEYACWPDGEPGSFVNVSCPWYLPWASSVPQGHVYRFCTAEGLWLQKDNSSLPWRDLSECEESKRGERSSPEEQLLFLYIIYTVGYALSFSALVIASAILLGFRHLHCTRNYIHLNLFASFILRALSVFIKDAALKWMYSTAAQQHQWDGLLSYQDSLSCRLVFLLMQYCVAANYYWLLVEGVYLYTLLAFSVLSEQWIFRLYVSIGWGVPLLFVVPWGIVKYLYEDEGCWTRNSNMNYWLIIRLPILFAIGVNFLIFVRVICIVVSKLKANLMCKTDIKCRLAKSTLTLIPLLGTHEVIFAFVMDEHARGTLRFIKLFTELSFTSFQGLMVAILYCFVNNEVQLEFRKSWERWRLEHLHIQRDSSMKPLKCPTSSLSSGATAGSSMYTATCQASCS
Assay: qHTS of GLP-1 Receptor Inverse Agonists (Inhibition Mode); note: nearly all actives have a fitted effect of over 55% in size
Conditions: HEK293 GLP-1R CRE-luciferase, luminescence, 24 h, GLP-1R form is constitutively active; series mostly up to 38.3 µM
Procedure, shortened: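 Readout was luciferase luminescence, measured 12 min after detection reagent at room temperature. Beforehand, GLP-1R reporter HEK293 cells had sat 12 h, then received compounds for 24 hr at 37 deg C.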
Potency is the fitted concentration of half-maximal effect; tags give direction and shape of the fitted curve.

Structure (SMILES)	Potency
CC12CN3CC(c4ccccc4)(CN(C1)C3c1ccc(Cl)cc1)C2=O (stereo not drawn)	inactive
CCCN(CC1CC1)C(=O)COC(=O)c1ccc(C)cc1O	inconclusive: 28.2 µM [inhibitor, single point]
Cc1cccc(C(=O)NCCCNC(=O)c2ccco2)c1	inactive
CCOc1ccccc1N(CC(=O)NC1CCCC1)S(=O)(=O)c1ccc(C)cc1	inconclusive: 28.2 µM [inhibitor, single point]
Cc1ccc(C(=O)N2CCN(c3ncccn3)CC2)cc1NC1=NC2CS(=O)(=O)CC2S1 (stereo not drawn)	inactive
Cc1cccc(N(CC(=O)N(C)Cc2ccccc2)S(=O)(=O)c2ccccc2)c1C	inconclusive: 10 µM [inhibitor, partial curve, poor fit]
CCc1ccc(NC(=O)CSc2nc3ccccc3nc2N2CCCC2)cc1	inconclusive: 12.6 µM [inhibitor, single point]
O=C(NC1c2ccccc2-c2ccccc21)c1ccco1	inconclusive: 22.4 µM [inhibitor, single point]
COc1ccc2nc(NC(=O)C3COc4ccccc4O3)sc2c1 (stereo not drawn)	inconclusive: 11.2 µM [inhibitor, single point]
COc1ccc(C2=NN(C(=O)COC(=O)c3ccc(S(C)(=O)=O)c([N+](=O)[O-])c3)C(c3ccco3)C2)cc1 (stereo not drawn)	inconclusive: 28.2 µM [inhibitor, single point]
CC(C)Cn1c(C(C)C)nc([N+](=O)[O-])c1S(=O)(=O)c1ccc(F)cc1	inconclusive: 28.2 µM [inhibitor, single point]
CC(C)(C)c1ccc(C(=O)NNC(=S)NC(=O)c2cccnc2)cc1	inconclusive: 31.6 µM [inhibitor, single point]
CCN1C(=O)[C@@H]2Cc3c([nH]c4ccccc34)C(c3ccc(OC)cc3)N2C1=S (stereo partly drawn)	inconclusive: 5.62 µM [inhibitor, partial curve, poor fit]
Cc1cc(C)c2sc(N(CCCN(C)C)C(=O)c3ccc(S(=O)(=O)N4CCCc5ccccc54)cc3)nc2c1	inconclusive: 8.91 µM [inhibitor, partial curve, poor fit]
COC(=O)c1scc(-c2ccccc2)c1S(=O)(=O)Nc1ccc(C)c(Cl)c1	inconclusive: 10 µM [inhibitor, partial curve, poor fit]
Cc1cc(C)c2c(=O)n(CC(=O)Nc3cccc(Cl)c3C)sc2n1	inactive
COc1ccc(C2Nc3ccccc3C(=O)N2Cc2ccco2)cc1COc1ccc([N+](=O)[O-])cc1 (stereo not drawn)	inconclusive: 1.78 µM [inhibitor, full curve, poor fit]
O=C(Nc1ccc2c(c1)OCCO2)c1ccc(Cl)cc1Cl	inconclusive: 12.6 µM [inhibitor, single point]
CCOC(=O)CSc1nc2ccccc2n1CC(=O)N1CCN(c2ccccc2)CC1	inconclusive: 0.891 µM [inhibitor, full curve, poor fit]
Nc1nnc(SCCOc2ccccc2)s1	inactive
Cc1ccc(C(=O)N2N=C(CC(C)C)CC2(O)C(F)(F)F)o1 (stereo not drawn)	inconclusive: 8.91 µM [inhibitor, partial curve, poor fit]

Structure (SMILES)	Potency
Cc1nn(Cc2ccccc2)c(Cl)c1C(=O)NCCc1ccc(Cl)cc1	inconclusive: 28.2 µM [inhibitor, single point]
CC(C)Oc1ccc(CN2CCC2(C)C(=O)Nc2ccc3c(c2)OCO3)cc1 (stereo not drawn)	inconclusive: 12.6 µM [inhibitor, partial curve]
CCN(C(=O)COc1ccc(C(C)=O)cc1)c1cccc2ccccc12	inconclusive: 28.2 µM [inhibitor, single point]
CCOc1ccc(NC(=O)CCC(=O)N2CCSc3ccccc32)cc1	inconclusive: 15.8 µM [inhibitor, single point] and inconclusive: 10 µM [inhibitor, partial curve, poor fit]
CC[n+]1c(C=C2C=C(C)OC(C)=C2)sc2ccccc21	inconclusive: 2.82 µM [inhibitor, single point]
N#Cc1ccc(CSc2nnc(COc3ccccc3)n2-c2ccccc2)cc1	inconclusive: 28.2 µM [inhibitor, single point]
Cc1onc(-c2c(F)cccc2Cl)c1C(=O)O/N=C(\N)c1ccc([N+](=O)[O-])o1	inactive
CCOC(=O)c1ccc(NC(=O)c2nc[nH]c2C(=O)N[C@@H](CCCCNC(=O)OC(C)(C)C)C(=O)OC(C)(C)C)cc1	inconclusive: 15.8 µM [inhibitor, single point]
c1ccc(CN2CCC3(CC2)Nc2ccccc2CO3)cc1	inactive
Clc1ccccc1-c1nnc(SCc2nc(-c3ccccc3)no2)n1-c1ccccc1	active: 10 µM
O=C(NCCc1ccc(Cl)cc1)c1ccc(CSCc2ccc(Cl)cc2)o1	inconclusive: 28.2 µM [inhibitor, single point]
CC/C(=C/c1ccccc1)c1cccc2[nH]c3c(OC)cccc3c12	inconclusive: 14.1 µM [inhibitor, single point]
CCc1cccc2c(C(=O)CN3C(=O)NC4(CCc5ccccc54)C3=O)c[nH]c12 (stereo not drawn)	inconclusive: 1.58 µM [inhibitor, partial curve, poor fit]
CCOC(=O)C1=CCC(c2ccccc2)N(S(=O)(=O)c2ccc(C)cc2)[C@H]1CC (stereo partly drawn)	inconclusive: 11.2 µM [inhibitor, single point]
O=C1N/C(=N\N=C\c2cccs2)SC1Cc1ccc(Cl)cc1Cl (stereo not drawn)	inactive
Cc1c(C(=O)Nc2cccc(C#N)c2)sc2nc3n(c(=O)c12)CCCCC3	inconclusive: 2.82 µM [inhibitor, partial curve, poor fit]
OC[C@@H]1CC[C@@H](Cc2ccc(-c3ccccc3)cc2)O1	inconclusive: 14.1 µM [inhibitor, partial curve, poor fit]
Cn1c(CSCc2ccc(Cl)c(Cl)c2)n[nH]c1=S	inconclusive: 12.6 µM [inhibitor, single point]
COc1ccc(CNC(=O)c2cc3oc4ccccc4c3n2C)cc1OC	inconclusive: 28.2 µM [inhibitor, single point]
S=C(NCCc1ccccc1)N/N=C/c1cccc(Cl)c1Cl	inconclusive: 12.6 µM [inhibitor, single point]
Cc1ccccc1C(=O)Nc1cccc(C(=O)N/N=C/c2cc(Cl)cc([N+](=O)[O-])c2O)c1	inconclusive: 11.2 µM [inhibitor, single point]

Structure (SMILES)	Potency
O=C(NCC1(N2CCCCC2)CCCCC1)c1cccc(S(=O)(=O)Nc2ccccc2Cl)c1	inconclusive: 7.08 µM [inhibitor, partial curve, poor fit]
CC(C)(C)c1ccc(Cn2cnc(-c3ccc([N+](=O)[O-])cc3)c2)cc1	inconclusive: 8.91 µM [inhibitor, partial curve, poor fit]
COc1cc(C(=O)Nc2ccc(NC(=O)C3CCCCC3)nc2)cc(OC)c1OC	inconclusive: 2.24 µM [inhibitor, partial curve, poor fit]
CCCNC(=O)C1CCC(Cn2c(=O)c3sccc3n(CC(=O)N3CCCC3)c2=O)CC1 (stereo not drawn)	inactive
O=S(=O)(c1ccc(Cl)c2ccccc12)N1CCCC1	inconclusive: 11.2 µM [inhibitor, partial curve, poor fit]
COc1ccccc1-c1nn(-c2ccccc2)cc1C(=O)N1CCc2ccccc2C1	active: 10 µM
CCOC(=O)Cc1c(C)nc2c(-c3ccccc3)c(C)nn2c1C	inconclusive: 11.2 µM [inhibitor, single point]
CN(CC(=O)Nc1ccc(N2CCOCC2)cc1)C(=O)CCc1cc(C(C)(C)C)c(O)c(C(C)(C)C)c1	inconclusive: 22.4 µM [inhibitor, single point]
COC(=O)c1sc2cccc(F)c2c1S(=O)(=O)Nc1cc(C)c(Cl)cc1OC	inconclusive: 12.6 µM [inhibitor, single point]
COC(=O)c1ccccc1NC(=O)N1CCN(c2ccccc2F)CC1	inconclusive: 22.4 µM [inhibitor, single point]
O=C(Nc1ccc2c(c1)CCC2)c1cc(S(=O)(=O)N2CCN(c3ccccc3)CC2)ccc1Cl	inactive
CCCN(/C=N/c1sc2c(c1C#N)CCCCC2)CCC	inconclusive: 6.31 µM [inhibitor, partial curve, poor fit]
CC(C)c1ccccc1OCCCCN1CCCCC1	inconclusive: 1 µM [inhibitor, partial curve, poor fit]
N/C(COc1ccccc1)=N\NC(=O)c1cccnc1Oc1ccccc1	inactive
CCN(Cc1ccccc1OC)CC1CCCN(CCc2cccc(OC)c2)C1 (stereo not drawn)	inconclusive: 11.2 µM [inhibitor, partial curve, poor fit]
O=C(c1ccco1)N1N=C(c2ccc(Cl)cc2)CC1(O)C(F)(F)F (stereo not drawn)	inconclusive: 28.2 µM [inhibitor, single point]
CN(C)CCNC(=O)c1ccc(COc2ccc(Cl)cc2Cl)cc1	inconclusive: 3.98 µM [inhibitor, full curve, poor fit]
O=C(NNc1nc2c(F)cccc2s1)c1ccccc1	inactive
COc1ccc(C(CC(=O)Nc2nccs2)n2cccc2)cc1 (stereo not drawn)	inconclusive: 28.2 µM [inhibitor, single point]
CCN(CC)c1ncnc2c1cnn2Cc1ccc(C)cc1	inactive
O=C(NCc1ccccc1)c1ccc2c(c1)N(Cc1ccc(F)cc1)CCS2	active: 5.62 µM
